According to the supplement of paper PMC7125110:
This sample is rich in variants without activity.

B1: glmS ribozyme (parent)
chain: AUAAAAGCGCCAGAACUACAGAAAUGUAGUUGACGAGGAGGAGGUUUAUCGAAUUUUCGGCGGAUGCCUCCAAA

Tests used:
Conditions in all cases: with glucosamine-6-phosphate
glucosamine-6-phosphate [1] = variants of: B1; experiment: self-cleavage kobs at 40 uM GlcN6P; higher = faster cleavage; RNA array
Method in brief: (§1)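 Barcoded ribozyme variants, transcribed in situ by E. coli RNA polymerase on sequenced MiSeq chips, were followed via a hybridised Cy3 probe at 37 °C. Glucosamine-6-phosphate ranged from 40 μM to 10 mM in HEPES/KCl/Mg(OAc)2 buffer. kobs came from decay fits to per-tile medians, and kcat and KM from weighted Michaelis–Menten fits.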

glucosamine-6-phosphate [2] = variants of: B1; experiment: self-cleavage kobs at 640 uM GlcN6P; higher = faster cleavage; RNA array
Method in brief: as §1

glucosamine-6-phosphate [3] = variants of: B1; experiment: self-cleavage kobs at 160 uM GlcN6P; higher = faster cleavage; RNA array
Method in brief: as §1

glucosamine-6-phosphate [4] = variants of: B1; experiment: self-cleavage kobs at 2500 uM GlcN6P; higher = faster cleavage; RNA array
Method in brief: as §1

glucosamine-6-phosphate [5] = variants of: B1; experiment: self-cleavage kobs at 10000 uM GlcN6P; higher = faster cleavage; RNA array
Method in brief: as §1

AUAAAAGCGCCAGAACUACAGAAAUGUAGUUGACGAGGAGGAGUUUUAUCGAAUUUUAGGCGGAUGCCUCCAAA
< 1e-05 s⁻¹: self-cleavage kobs at 40 uM GlcN6P (glucosamine-6-phosphate [1]) | self-cleavage kobs at 640 uM GlcN6P (glucosamine-6-phosphate [2]) | self-cleavage kobs at 160 uM GlcN6P (glucosamine-6-phosphate [3]) | self-cleavage kobs at 2500 uM GlcN6P (glucosamine-6-phosphate [4]) | self-cleavage kobs at 10000 uM GlcN6P (glucosamine-6-phosphate [5])

AUAAAAGCGCCAGAACUACAGAAAUGUAGUUGACGAGGAGGAGUUUUAUCGAAUUUUCGGCGGAUGCCUGAAAA
< 1e-05 s⁻¹: self-cleavage kobs at 40 uM GlcN6P (glucosamine-6-phosphate [1]) | self-cleavage kobs at 10000 uM GlcN6P (glucosamine-6-phosphate [5])

AUAAAAGCGCCAGAACUACAGAAAUGUAGUUGACGAGGAGGAGUUUUAUCAAAUUUUCGGCGGAUGCCUCCAAA
< 1e-05 s⁻¹: self-cleavage kobs at 40 uM GlcN6P (glucosamine-6-phosphate [1]) | self-cleavage kobs at 640 uM GlcN6P (glucosamine-6-phosphate [2]) | self-cleavage kobs at 160 uM GlcN6P (glucosamine-6-phosphate [3]) | self-cleavage kobs at 2500 uM GlcN6P (glucosamine-6-phosphate [4])

AUAAAAGCGCCAGAACUACAGAAAUGUAGUUGACGAGGAGGAGUUUUAUCUAAUUUUCGGCGGAUGCCUCCAAA
< 1e-05 s⁻¹: self-cleavage kobs at 40 uM GlcN6P (glucosamine-6-phosphate [1]) | self-cleavage kobs at 640 uM GlcN6P (glucosamine-6-phosphate [2]) | self-cleavage kobs at 160 uM GlcN6P (glucosamine-6-phosphate [3]) | self-cleavage kobs at 2500 uM GlcN6P (glucosamine-6-phosphate [4]) | self-cleavage kobs at 10000 uM GlcN6P (glucosamine-6-phosphate [5])

AUAAAAGCGCCAGAACUACAGAAAUGUAGUUGACGAGGAGGAGUUUUAUCGAAUUUUCUGCGGAGGCCUCCAAA
< 1e-05 s⁻¹: self-cleavage kobs at 40 uM GlcN6P (glucosamine-6-phosphate [1])

AUAAAAGCGCCAGAACUACAGAAAUGUAGUUGACGAGGAGGAGUUUUAUCGAAUUUUCGUCGGAUGCCUCCAAA
< 1e-05 s⁻¹: self-cleavage kobs at 40 uM GlcN6P (glucosamine-6-phosphate [1]) | self-cleavage kobs at 640 uM GlcN6P (glucosamine-6-phosphate [2]) | self-cleavage kobs at 160 uM GlcN6P (glucosamine-6-phosphate [3]) | self-cleavage kobs at 2500 uM GlcN6P (glucosamine-6-phosphate [4]) | self-cleavage kobs at 10000 uM GlcN6P (glucosamine-6-phosphate [5])

AUAAAAGCGCCAGAACUACAGAAAUGUAGUUGACGAGGAGGAGUCUUAUCGAAUUUUCGGCGGAUGCCUCCAAA
< 1e-05 s⁻¹: self-cleavage kobs at 40 uM GlcN6P (glucosamine-6-phosphate [1])

AUAAAAGCGCCAGAACUACAGAAAUGUAGUUGACGAGGAGGAGUCUUAUCGAAUUUUCGGCGGCUGCCUCCAAA
< 1e-05 s⁻¹: self-cleavage kobs at 40 uM GlcN6P (glucosamine-6-phosphate [1]) | self-cleavage kobs at 2500 uM GlcN6P (glucosamine-6-phosphate [4]) | self-cleavage kobs at 10000 uM GlcN6P (glucosamine-6-phosphate [5])

AUAAAAGCGCCAGAACUACAGAAAUGUAGUUGACGAGGAGGAGUUUAAUCGAAUUUUCGGCGGAUGCCUCCAAA
< 1e-05 s⁻¹: self-cleavage kobs at 40 uM GlcN6P (glucosamine-6-phosphate [1])

AUAAAAGCGCCAGAACUACAGAAAUGUAGUUGACGAGGAGGAGUUUUAACGAAUUUUCGGCGGAUGCCUCCAAA
< 1e-05 s⁻¹: self-cleavage kobs at 40 uM GlcN6P (glucosamine-6-phosphate [1]) | self-cleavage kobs at 640 uM GlcN6P (glucosamine-6-phosphate [2]) | self-cleavage kobs at 160 uM GlcN6P (glucosamine-6-phosphate [3]) | self-cleavage kobs at 2500 uM GlcN6P (glucosamine-6-phosphate [4]) | self-cleavage kobs at 10000 uM GlcN6P (glucosamine-6-phosphate [5])

AUAAAAGCGCCAGAACUACAGAAAUGUAGUUGACGAGGAGGAGUUUUAUCGAAUUUCCGGCGUAUACCUCCAAA
< 1e-05 s⁻¹: self-cleavage kobs at 40 uM GlcN6P (glucosamine-6-phosphate [1])

AUAAAAGCGCCAGAACUACAGAAAUGUAGUUGACGAGGAGGAGUUUUAUCGAAUUUGCGGCGGAUGCCUCCAAA
< 1e-05 s⁻¹: self-cleavage kobs at 40 uM GlcN6P (glucosamine-6-phosphate [1]) | self-cleavage kobs at 160 uM GlcN6P (glucosamine-6-phosphate [3]) | self-cleavage kobs at 2500 uM GlcN6P (glucosamine-6-phosphate [4]) | self-cleavage kobs at 10000 uM GlcN6P (glucosamine-6-phosphate [5])
